Measurements from the supplement of paper PMC12217912.
Some of the results follow. The full chains were built here from the parent and the listed change. Inactive controls read about 0.05.

B1: TEV protease; numbered along this chain (parent)
chain: MGESLFKGPRDYNPISSSICHLTNESDGHTTSLYGIGFGPFIITNKHLFRRNNGTLVVQSLHGVFKVKDTTTLQQHLVDGRDMIIIRMPKDFPPFPQKLKFREPQREERICLVTTNFQTKSMSSMVSDTSCTFPSGDGIFWKHWIQTKDGQCGSPLVSTRDGFIVGIHSASNFTNTNNYFTSVPKNFMELLTNQEAQQWVSGWRLNADSVLWGGHKVFMVKPEEPFQPVKEATQL

Variants of: B1
Assay: raw area under fraction-flipped curve 0-4 h after induction (AUC4h, not background-subtracted), DNA-recorder readout of cleavage of the substrate (dimensionless); higher = more cleavage of the substrate by the protease variant
Settings: temperature: 34 °C; time window: 0-4 h after rhamnose induction
Procedure: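 In vivo DNA recorder in E. coli TOP10(DE3) ΔrhaA at 34 °C. Each TEVp single-site mutant (parent TEVp 0) is paired with a single-site variant of the 7-mer TEVs (canonical ENLYFQ|S). The substrate sits between flexible linkers in a Bxb1-sfGFP-TEVs-SsrA fusion, so cleavage stabilises Bxb1 and speeds flipping of a recombination array, read by NGS. The value is the raw area under the fraction-flipped curve over 0-4 h after rhamnose induction (AUC4h), with ≥20 reads per time point. It is not background-subtracted; inactive controls average about 0.047.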
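Note: Bxb1 expression induced with 0.2% (w/v) L-rhamnose at OD600 near 0.5, cultures sampled hourly, flipped fraction per protease–substrate barcode pair counted by paired-end Illumina sequencing.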

Variant | area with substrate ENLYAQS | area with substrate ENLYCQS | area with substrate ENLYDQS | area with substrate ENLYEQS | area with substrate ENLYGQS | area with substrate ENLYHQS | area with substrate ENLYIQS | area with substrate ENLYKQS | area with substrate ENLYLQS | area with substrate ENLYMQS | area with substrate ENLYNQS | area with substrate ENLYPQS | area with substrate ENLYQQS | area with substrate ENLYRQS | area with substrate ENLYSQS | area with substrate ENLYTQS | area with substrate ENLYVQS | area with substrate ENLYWQS | area with substrate ENLYYQS
G37V | 0.0602 | 0.0665 | 0.0624 | 0.0522 | 0.0545 | 0.0564 | 0.0921 | 0.0172 | 0.0646 | 0.0713 | 0.0777 | 0.0665 | 0.0215 | 0.0562 | 0.0656 | 0.0528 | 0.0974 | 0.091 | 
G37M | 0.0614 |  | 0.054 | 0.061 | 0.0599 | 0.0505 | 0.114 | 0.0549 |  | 0.0791 | 0.0595 | 0.0647 |  |  |  |  | 0.0877 | 0.0604 | 0.0569
T31S | 0.0612 |  | 0.0756 | 0.0575 | 0.058 | 0.0548 | 0.133 | 0.0623 | 0.0777 | 0.0943 | 0.0624 | 0.0901 | 0.11 | 0.0643 | 0.0604 | 0.0755 | 0.132 | 0.0868 | 
T31N | 0.0912 | 0.0809 | 0.0742 | 0.0586 | 0.0658 | 0.08 | 0.106 | 0.0581 | 0.0846 | 0.0815 | 0.0704 | 0.0664 | 0.0697 | 0.063 | 0.0634 | 0.068 | 0.0961 | 0.0539 | 0.0753
E25V | 0.0808 |  | 0.0555 | 0.0693 | 0.0741 | 0.074 | 0.092 | 0.0582 | 0.0652 | 0.0768 | 0.0633 | 0.0727 | 0.0608 |  | 0.0764 | 0.0655 | 0.106 | 0.0817 | 0.0759
E25D | 0.0691 | 0.0859 | 0.0616 | 0.0462 | 0.0593 | 0.0649 | 0.117 | 0.0588 | 0.113 | 0.0767 | 0.0668 | 0.063 |  | 0.0684 | 0.0686 |  | 0.111 | 0.0887 | 
F41T | 0.079 | 0.088 | 0.0624 | 0.0654 | 0.0617 | 0.0675 | 0.117 | 0.0349 | 0.0525 | 0.0729 |  | 0.0546 |  | 0.0527 | 0.056 |  | 0.13 | 0.0651 | 0.0458
I42Q | 0.0337 |  | 0.016 |  | 0.0385 | 0.0506 | 0.0367 |  |  |  | 0.0477 |  | 0.0458 | 0.0564 | 0.0391 |  | 0.0507 |  | 
H47P | 0.0648 | 0.0727 | 0.0641 | 0.0448 | 0.0514 | 0.0751 |  | 0.0615 | 0.0748 | 0.0518 | 0.0526 | 0.059 |  |  | 0.0406 |  | 0.0725 |  | 0.0616
L33G | 0.0717 |  | 0.0682 | 0.069 | 0.0552 | 0.0685 | 0.0819 | 0.0642 |  |  | 0.0565 | 0.0833 | 0.0597 | 0.0704 | 0.071 |  | 0.0796 | 0.0822 | 0.0494
V58F | 0.0493 |  | 0.0607 |  |  | 0.0655 | 0.111 | 0.0671 |  |  |  | 0.0469 |  | 0.0396 |  | 0.0634 |  | 0.0843 | 0.0539
G54S | 0.0828 |  | 0.0568 | 0.0752 |  | 0.0573 | 0.106 | 0.0495 | 0.0515 | 0.0596 | 0.0593 | 0.0791 |  | 0.06 | 0.0757 | 0.0608 | 0.0846 | 0.0534 | 0.0677
R50E | 0.0744 | 0.0673 | 0.0643 | 0.0583 | 0.0761 | 0.0678 | 0.0628 | 0.0799 |  | 0.0608 | 0.0665 | 0.0699 | 0.0643 | 0.0497 |  | 0.0627 |  | 0.0667 | 0.0582
I36F | 0.075 |  | 0.0545 | 0.062 | 0.0537 | 0.0707 | 0.0997 | 0.0263 |  |  | 0.0628 | 0.0676 | 0.0606 | 0.0629 |  |  | 0.0968 |  | 
I36Q | 0.0333 | 0.0542 | 0.0434 | 0.0535 | 0.0505 | 0.0808 | 0.0697 | 0.0424 |  | 0.0565 | 0.0523 |  | 0.0686 | 0.0508 | 0.0554 |  | 0.0646 | 0.0393 | 
F65M | 0.0741 |  |  | 0.0585 | 0.0758 | 0.0612 | 0.107 | 0.0407 |  | 0.0722 | 0.065 | 0.073 | 0.0523 | 0.0647 | 0.0605 |  |  | 0.0726 | 0.0568
K46W | 0.063 |  | 0.054 | 0.0711 | 0.0569 | 0.0639 | 0.0447 | 0.0579 | 0.0503 | 0.0603 | 0.0494 | 0.054 | 0.0545 | 0.0614 | 0.0725 |  |  | 0.0527 | 
K46V | 0.0685 |  | 0.0462 | 0.096 | 0.0598 | 0.0365 |  | 0.0675 | 0.0603 |  | 0.0614 | 0.0628 | 0.0704 | 0.0555 |  |  | 0.0337 |  | 0.061
V67C | 0.0787 | 0.0955 | 0.0599 | 0.0691 | 0.0533 |  | 0.122 |  | 0.075 |  | 0.0428 |  | 0.0745 | 0.0551 |  | 0.0809 |  | 0.0796 | 
K68C | 0.0768 |  | 0.0518 | 0.07 | 0.0654 | 0.0624 |  | 0.038 |  | 0.0967 | 0.0784 | 0.0741 | 0.0666 |  | 0.0852 | 0.0695 | 0.152 | 0.123 | 0.0861
L77E | 0.0732 | 0.0682 | 0.0683 |  | 0.0578 | 0.0538 |  | 0.058 | 0.0564 | 0.0621 |  | 0.0563 | 0.0648 | 0.0385 | 0.0707 | 0.0601 | 0.0586 | 0.0576 | 0.0562
L77W | 0.0747 | 0.0555 | 0.0521 | 0.0497 | 0.0684 | 0.0582 |  | 0.06 |  | 0.0578 | 0.0572 |  |  |  |  | 0.065 | 0.0859 |  | 
N45C | 0.0738 | 0.0828 | 0.0556 | 0.0514 | 0.07 | 0.0773 |  | 0.0782 |  | 0.107 | 0.0621 | 0.0903 |  | 0.0739 | 0.0798 | 0.0693 | 0.0856 | 0.0749 | 0.0737
N45F | 0.0608 |  | 0.0753 | 0.0623 |  | 0.0647 | 0.0659 | 0.0628 |  | 0.0664 |  |  | 0.0618 | 0.069 | 0.0451 |  | 0.0538 | 0.0646 | 
